Experiment [1] concerns the target T1, human CD38 on multiple myeloma cells (human, UniProt P28907 1-300).
T1 construct: whole, on cells; Here the protein is the cell lines' own
Briefly: flow cytometry on MOLP-8 cells; one-site binding fit. (In general: In flow cytometry, cells or beads pass a laser one at a time.)

Experiment [2] addresses T1, human CD38 on multiple myeloma cells. Briefly: flow cytometry on NCI-H929 WT cells; one-site binding fit.
Experiment [3] shares this target. Briefly: flow cytometry on NCI-H929 BCMA KO cells (BCMA-negative, CD38-positive); one-site binding fit.
For experiment [4] the target is unchanged. The experiment in a line: flow cytometry on KMS-12-BM cells; one-site binding fit.
The target of experiment [5] is T2, human BCMA on cells (NCI-H929, NCI-H929 CD38 KO, MOLP-8) (human, UniProt Q02223 1-184).
T2 construct: whole, on cells; endogenous BCMA of myeloma cell lines
T2 sequence (looked up): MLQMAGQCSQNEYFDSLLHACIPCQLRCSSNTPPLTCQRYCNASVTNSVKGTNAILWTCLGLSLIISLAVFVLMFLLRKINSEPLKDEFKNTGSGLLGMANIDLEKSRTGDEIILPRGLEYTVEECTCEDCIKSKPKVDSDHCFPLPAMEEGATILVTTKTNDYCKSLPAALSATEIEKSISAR
The experiment in a line: flow cytometry, NCI-H929 CD38 KO cells (BCMA present, CD38 absent).

B1: CD3/BCMA/CD38-149 (bispecific antibody, human IgG1, kappa, L234A L235A)
heavy 1: QVQLVQSGAEVKKPGSSVKVSCKASGGDFTLYSISWVRQAPGQGLEWMGRIIPTGANANYAQKFQGRVTITADESTSTAYMELSSLRSEDTAVYYCARSTPTYGSGWFDIWGQGTLVTVSSASTKGPSVFPLAPSSKSTSGGTAALGCLVKDYFPEPVTVSWNSGALTSGVHTFPAVLQSSGLYSLSSVVTVPSSSLGTQTYICNVNHKPSNTKVDKKVEPKSCDKTHTCPPCPAPEAAGGPSVFLFPPKPKDTLMISRTPEVTCVVVDVSHEDPEVKFNWYVDGVEVHNAKTKPREEQYNSTYRVVSVLTVLHQDWLNGKEYKCKVSNKALAAPIEKTISKAKGQPREPAVYTLPPSREEMTKNQVKLVCLVTGFYPSDIAVEWESSGQPENNYYTTPPMLDSDGSFSLVSWLNVDKSRWQQGNIFSCSVMHEALHNRFTQKSLSLSPG
heavy 2: QVQLVQSGAEVKKPGSSVKVSCKASGGKFSRYAISWVRQAPGQGLEWMGGITALGGYPNYAQKFQGRVTITADESTSTAYMELSSLRSEDTAVYYCARYGYSLYMDIWGQGTLVTVSSASTKGPSVFPLAPSSKSTSGGTAALGCLVKDYFPEPVTVSWNSGALTSGVHTFPAVLQSSGLYSLSSVVTVPSSSLGTQTYICNVNHKPSNTKVDKKVEPKSCGGGGSGGGGSGGGGSQVQLVQSGAEVKKPGSSVKVSCKASGVDFTKYAIHWVRQAPGQGLEWMGGIVPAEGDANYAQKFQGRVTITADESTSTAYMELSSLRSEDTAVYYCARDVLSAGDGYYLYDLMDVWGQGTLVTVSSASTKGPSVFPLAPSSKSTSGGTAALGCLVKDYFPEPVTVSWNSGALTSGVHTFPAVLQSSGLYSLSSVVTVPSSSLGTQTYICNVNHKPSNTKVDKKVEPKSCDKTHTCPPCPAPEAAGGPSVFLFPPKPKDTLMISRTPEVTCVVVDVSHEDPEVKFNWYVDGVEVHNAKTKPREEQYNSTYRVVSVLTVLHQDWLNGKEYKCKVSNKALAAPIEKTISKAKGQPREPEVATFPPSRDELTKNQVTLVCLVTGFYPSDIAVEWESNGQPENNYKTDPPLLESQGSFALSSRLRVDKSRWQQGNVFSCSVMHEALHNHYTQKSLSLSPG
light: EIVMTQSPATLSVSPGERATLSCRASQSVSSNLAWYQQKPGQAPRLLIYGASTRATGIPARFSGSGSGTEFTLTISSLQSEDFAVYYCQQYNNWPWTFGQGTKVEIKRTVAAPSVFIFPPSDEQLKSGTASVVCLLNNFYPREAKVQWKVDNALQSGNSQESVTEQDSKDSTYSLSSTLTLSKADYEKHKVYACEVTHQGLSSPVTKSFNRGEC
notes: Light chain copies of 3 is inferred from three Fabs sharing the common light chain; also called C1-D6/G6DU/B3-C11; CD3/DU/CD38
As to B1, the Kd in experiment [1] came out at 0.0321 µM; in experiment [2], 0.118 µM; in experiment [3], 0.215 µM; in experiment [4], 0.0456 µM.

B2: CD3/BCMA/CD38-149 (other)
heavy 1: B1 heavy 1
heavy 2: B1 heavy 2
light: B1 light
notes: control in TREAT format; also called C1-D6/G6DU/B3-C11; CD3/DU/CD38
In the case of B2, the binding result in experiment [5] is “no binding”.

The term Kd denotes the constant that tells how readily two partners part at equilibrium. Low readings indicate higher affinity, high ones lower affinity.

The values are drawn from patent US20240132615A1 (ICHNOS SCIENCES, published 2024).
